Sequences with one replicate were seen in a single cluster, so their values are uncertain.
Test system: ATP
Assay: switch fluorescence ratio, 500 uM ATP over buffer (Cy3 cluster intensity, sum of 5 cycles each) (fold (ratio)); higher = stronger signal-on switching upon ATP binding; sequences stand for … in TCGTCGGCAGCGTCAGATGTGTATAAGAGACAGTTTTTTTTTTTTTTTTTTTTTTTTT…TC
Conditions: aptamer strand: ATP DNA aptamer (quencher-CACCTGGGGGAGTATTGCGGAGGAAGG + anchor), 100 nM annealed; ATP concentration: 500 uM; one replicate
How it was run: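 The quencher-labelled ATP aptamer, at 100 nM, was annealed to Cy3-labelled switching-strand clusters on a modified Illumina MiSeq flow-cell. The clusters were imaged in selection buffer, then after 15 min with 500 uM ATP at 22 °C, and this buffer/ATP cycle ran five times with NaOH stripping and re-annealing between runs. Per-cluster fluorescence ratios, summed target-cycle over summed buffer-cycle Cy3 intensity, were averaged per switch-domain sequence. Clusters outside 100-1000 RFU were excluded.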
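Further: ATP exposure 15 min at 22 °C before imaging.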

Sequence	switch fluorescence ratio
AGGGGCCTTG	1
AGACCATGTC	1.01
TTAAGAGGCT	1.04
CGGGCGAGCT	0.965
CGGGAGTTTC	1.01
TAGGTTACTA	1
CGAGTACTCG	0.95
AGGAAGTTCG	0.991
GTTATACCGA	1.03
ATCTGCAACG	1.03
GAAAGCTTAA	1.13
TTAAGCTGAG	1.01
GCCACACGCC	1.13
AAGTTAGGTA	0.988
AACTCCACCG	1.57
GAAAGTGTTC	1.08
CATGAGGACG	1.04
CCCTCTTGGG	1.02
AGAGATTG	0.948
GATGATTGCG	0.988
GTTGCTTGC	0.994
AAGTGGGTTG	0.968
GATGAAGGGC	1.07
GAGCTATGA	1.01
CGGAAGACAC	1.1

Sequence	switch fluorescence ratio
CTTAAGTTTG	0.943
TGCACTAGCG	0.987
TAGAAAAAAT	0.986
TATGGTGAGA	1.03
CCGGGTAGCG	0.993
GGTTATTAGG	0.99
GCAGTAAAGT	0.943
AAGGTCCACT	0.945
CATGGTAATG	0.937
CACACTACCC	1.34
TAATCGGATG	0.98
AAGTAGAGGT	1.04
TTCTGCTCCC	1.04
CATGCGCCTG	1.04
GAAAGCGCAG	1.03
CGGGTATAT	1.01
CCCTCAGTCG	1.19
GCTGTGTCGT	0.98
CCTTCTTCTT	1.02
TCCAAGGGCG	1.01
CCTTGCATAG	4.28
ATCCTTGAGT	1.01
GGGGGACCTG	0.953
TCAATGAGG	0.989
GCTCCATTGG	1.01

Sequence	switch fluorescence ratio
CGCCCACA	1.8
GGTGTGTAAT	0.958
TTACACTGAG	1.05
CTAGCAAGGT	1.35
ATCTTCGTAC	1.15
TGGCGGCTAT	0.983
GACCGTACCT	1.71
CAGAAAGGAA	1.03
TCTTTCGGGT	1.01
AGTGCCGAGG	1.02
AGCGCGCATA	1.06
CGGAAGTGAC	1.26
GGAGAATAGC	1.01
CTCTCCCTGT	1.37
GCACTTGCTT	0.996
CGGTTCTAT	0.997
GGGTTCGGGC	0.989
GGGATACGAA	0.996
CGTTATTACG	0.965
GCTGGACTT	0.984
GGACGACAAA	1.01
TAGAACCCGC	1.05
TTTCTTTCAC	1.01
GTGAACAAAT	0.974
CAAGGAGCTG	0.985

Sequence	switch fluorescence ratio
ATACGGTTGT	1.02
ATCTTCAACC	1.05
CGCATAATTA	1.11
ATCGAAGTTA	1.03
AGGCGTGGTG	0.996
GGCTTTTGCA	1.02
TAGGGCCAGG	1.09
GCGAGAGGGC	1.09
ACGCGAACGT	1.03
AACCCGCAAA	4.8
CCGCGATGGA	2.1
GGTAGCCTTA	1.07
AAAGATTGCA	0.972
TCGGGAAGTA	0.968
ATTTGTGCTT	0.978
TTACGATTCT	0.987
CAGTCTATGC	1.07
ATGGTTGCTA	0.986
TACATCGAGA	1.02
CCTGAGATGC	1.39
AGCCCCAAGT	1
TCTGGACGAT	1.03
GTGGTACCCA	0.982
CCTGACAGAC	1.73
CCGGTATTGG	1.02

Source: the supplement of paper PMC10126150
